Several values for one entry are separate records, joined by “and”; a condition that tells them apart may be missing. Equal entries are not always repeated.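 Results reflect a 48-hour exposure of cells in 96-well plates to compound at five concentrations. Abbreviation: GI50, concentration required for 50% inhibition of growth. TGI denotes the concentration required for complete inhibition of growth.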 Peptide text beside a SMILES is read from it.

This test has as its system NCI-H322M lung. The test can be described thus: inhibition of tumour cell growth, NCI panel, 48 h.
Consider `Oc1ccc(Br)cc1C=NC1CCCCC1`, for which the TGI is over 100 µM.

The compound `CSc1c(C(N)=S)c(N)nn1-c1ccccc1` registered a TGI of over 100 µM. Same read-out and setting: next, `C/C=C(\C)C(=O)OC1C2C(C)=CC(=O)C(O)C2(C)C2C3(O)OCC24C1OC(=O)C(OC(C)=O)C4C(C)C3O` (stereo unspecified): 1.18 µM; `O=P(O)(O)c1ccc2c(c1)OCCOCCOCCOCCO2`: over 100 µM.

`Cc1cn(CCCCOC(=O)NC(CCCN=C(N)N)C(=O)O)c(=O)[nH]c1=O` (stereo unspecified) gave a TGI of over 100 µM.

On to `C[C@H](CCC(=O)O)[C@H]1CC[C@H]2[C@@H]3[C@@H](O)C[C@@H]4C[C@H](O)CC[C@]4(C)[C@H]3C[C@H](O)[C@]12C`, for which the TGI is over 100 µM.

Consider `COC(=O)CC(C(C(=O)OCc1ccccc1)C(C)O)N1C(=O)OCC1c1ccccc1` (stereo unspecified), for which the TGI is over 100 µM. On the same count and under the same terms, in the case of `O=C(O)CN1CCN2CCCCCCCCN(CC1)CCN(CC(=O)O)CC2` it was over 100 µM; in that of `COC1CC(O[C@H]2CC[C@@]3(C)C(=CCC4(O)C3CCC35C(=O)OC6(C)O[C@@]43CCC65)C2)OC(C)C1O` (stereo partly specified), over 100 µM; in that of `O=C1CC=C2C3CC4N(CCC45c4ccccc4N1C25)C/C3=C\CO` (stereo unspecified), over 100 µM. As for `COc1ccc(C/C=C(\C)CCO)cc1`, the TGI is over 100 µM. For the compound `CCCCCCCC(=O)Nc1nc2[nH]c(CN3CCN(Cc4cccc(I)c4)CC3)c(CN3CCN(Cc4cccc(I)c4)CC3)c2c(=O)[nH]1`, the GI50 was 0.87 µM and the TGI came out at 1.88 µM.

`CC(=O)OC(OC(C)=O)c1c2ccccc2cc2ccccc12` registered a TGI of 81.7 µM. For the compound `NC(=O)c1ccc(I)c([N+](=O)[O-])c1`, the GI50 is 35.2 µM and the TGI was found to be 99.7 µM. In the case of `CN1/C(=C\N=O)C(C)(C)N(O)C1(C)C`, the TGI is over 100 µM. In the case of `O=C1C=CC(=O)c2c(O)c(NCCN3CCOCC3)c(Cl)c(O)c21`, the TGI came out at 4.21 µM. As for `N[C@@H](Cc1c[nH]c2ccccc12)C(=O)NC1CCN(Cc2c[nH]c3ccc(Cl)cc23)CC1`, the GI50 was 11.6 µM and the TGI amounted to 24.5 µM. As for `COC1=CC(c2ccc[nH]2)=N/C1=C\c1[nH]c(C)c(CC(=O)NCc2ccccc2)c1C`, the GI50 was 1.77 µM and the TGI is 3.29 µM. Take `O=C(O)C(Cc1ccccc1)N=Cc1nc(-c2ccccc2)oc1O` (stereo unspecified): the TGI was over 100 µM. For the compound `CC(=O)NNc1ncc(C(=O)/C=C/c2ccccc2C)s1`, the TGI is over 100 µM. `COC(=O)[C@@H](C)C[C@H](Cc1ccccc1)NC(=O)c1csc([C@@H](C[C@H](C(C)C)N(C)C(=O)[C@@H](NC(=O)[C@H]2CCCCN2C)c2ccc(F)cc2)OC(C)=O)n1`: the TGI was 25 µM and > 100 µM. On the same count and under the same terms, in the case of `Cc1ccc([N+](=O)[O-])cc1NC(=O)C(=O)Cc1nc2ccc(C(=O)c3ccccc3)cc2[nH]c1=O` it was over 100 µM; in that of `C[n+]1c2ccccc2n2c3ccccc3c(NCc3ccco3)c(C#N)c21`, 18.8 µM.

Regarding `Oc1ccc(O)c(-n2cccn2)c1`, the TGI was over 100 µM. In turn, `CC[C@@]1(O)C(=O)OCc2c1cc1n(c2=O)Cc2c-1nc1ccccc1c2/C=N\NC(=O)C(N)Cc1ccc(O)cc1` (stereo partly specified) returned a TGI of over 31.6 µM. Consider `CC[C@H](C)[C@H](NC(=O)c1ncccn1)C(=O)N(C)[C@H](C[C@@H](OC(C)=O)c1nc(C(=O)N[C@@H](Cc2ccccc2)C[C@H](C)C(=O)OC)cs1)C(C)C`, for which the GI50 was 1.91 µM and the TGI is over 25 µM. With `CCC(CO)Nc1nc(NCc2ccccc2)c2n[nH]c(C(C)C)c2n1` (stereo unspecified), the GI50 is 10.4 µM and the TGI amounted to 25.4 µM. The compound `CSc1ccc(Cc2cc(C(C)(C)C)cc(C(C)(C)C)c2O)cc1` showed a TGI of 32.4 µM. On the same count and under the same terms, in the case of `COc1cccc(/C=C2\N=C(Cl)OC2=O)c1O` it was over 100 µM. As to `Cc1cccc2c(=O)c3c(sc12)c(NCCCN)nc1ccccc13`, the GI50 was 1.59 µM and the TGI amounted to 3.02 µM. Regarding `COc1ccc(N[C@H](CS(=O)c2ccc(C)cc2)C(F)(F)F)cc1` (stereo partly specified), the TGI is over 100 µM. For the compound `CCCCCCCCCCCCCCCCCC1=NC(C)(C)CN1C(C)(C)CO`, the GI50 is 2.65 µM and the TGI is 7.1 µM. `Cc1ccc2c(ccc3ncc(CNc4ccc(NS(C)(=O)=O)cc4)c32)[nH]1` came in with a TGI of over 100 µM. Consider `CC(=O)NC(CS)C(=O)NC(CO)C(=O)NC(CO)C(=O)NC(Cc1c[nH]c2ccccc12)C(=O)N1CCCC1C(=O)NC(CO)C(=O)NC(Cc1c[nH]c2ccccc12)C(=O)NC(Cc1c[nH]cn1)C(=O)NC(CO)C(=O)NC(Cc1c[nH]c2ccccc12)C(=O)NCC(=O)NCC(=O)NC(C)C(=O)NC(CCC(N)=O)C(=O)NC(CCCCN)C(=O)NC(C)C(=O)NC(CCCNC(=N)N)C(=O)NC(CCCCN)C(N)=O` (stereo unspecified) (Ac-CSSWPSWHSWGGAQKARK-NH2; configuration not given here), for which the TGI was over 50 µM. Take `COc1nc(NC2OC(COC(C)=O)C(OC(C)=O)C(OC(C)=O)C2OC(C)=O)c(N=C(C)C(C)=O)c(=O)n1C` (stereo unspecified): the TGI was over 100 µM. Turning to `COc1ccc2cc(C(=O)N3CCC([C@@H](C)C(=O)NCc4ccc5c(c4)OCO5)CC3)[nH]c2c1`, the GI50 was over 100 µM and the TGI is over 100 µM. Consider `CC12CP(=O)(O)CC1C2(Cl)Cl` (stereo unspecified), for which the TGI is over 100 µM. In turn, `C/C(=N\N)C(CN1CCOCC1)C(c1ccccc1)c1c(O)c2ccccc2oc1=O` (stereo unspecified) had a TGI of over 100 µM.

`CN1C(c2ccccc2)CC(=NO)CC1c1ccccc1` (stereo unspecified) registered a TGI of over 100 µM. `Cc1ccc(C(=O)C2C=C(c3ccc(C)cc3)SC3C=CCC32)cc1` (stereo unspecified) came in with a TGI of 76.1 µM. In turn, `O=C(O)c1nn(-c2ccc(Cl)cc2)c2c1C(=O)c1ccccc1C2=O` returned a TGI of over 100 µM. Regarding `CC1(C)CC[C@]2(C(=O)NCCNCCN)CC[C@]3(C)C(=CC[C@@H]4[C@@]5(C)CCC(=O)C(C)(C)[C@@H]5CC[C@]43C)[C@@H]2C1`, the GI50 was 1.7 µM and the TGI stood at 3.24 µM. The corresponding values for `COc1ccc(-c2oc3ncnc(N)c3c2-c2ccc(NC(=O)Nc3cc(C(F)(F)F)ccc3F)cc2)cc1` are 1.45 µM and 9.6 µM.

Turning to `O=c1oc2ccc(F)cc2c(=O)n1-c1ccc(I)cc1F`, the GI50 is 0.404 µM and the TGI was 11.3 µM. Turning to `CCOC(=O)C(=CNc1ccc(S(N)(=O)=O)cc1)C(=O)OCC`, the TGI is over 100 µM. Still for that read-out and setting: in the case of `CCCCC1Nc2ccccc2-c2ccnc(Cl)c21` (stereo unspecified) it was over 100 µM. Same read-out and setting: in the case of `CCOC(=O)c1ccc(NCc2ccc3nc(OC)c(OC)nc3c2)cc1` it was over 100 µM; in that of `Cc1ccc(NC(=O)C(=O)C2C(=O)NC(=O)NC2=O)c(C)c1`, over 100 µM. With `CCCC[C@H](CCc1ccccc1)N(C(=O)OC)N1CCC[C@H]1COC`, the TGI worked out at 83 µM. The compound `NC1=Nc2ccccc2Sc2nccn21` returned a TGI of over 100 µM. For the compound `CCN(CC)CCOCCOCC1(c2ccc(Cl)c(Cl)c2)CCCCC1`, the TGI was 26.2 µM. Take `C=CCC1(CN(C)C)CC/C(=C\c2cc(OC)c(OC)c(OC)c2)C1=O` (stereo unspecified): the TGI is over 100 µM. `Nc1ccc(C(=O)CC2(O)C(=O)Nc3ccccc32)cc1` (stereo unspecified) showed a TGI of over 100 µM. Turning to `COc1ccc2c(c1)c1ccc3c(c1n2C)C(=O)C=CC3=O`, the TGI came out at 57.8 µM. On to `O=C1/C(=C/c2ccc(Cl)cc2)N=C(c2ccccc2)N1c1cc(C(F)(F)F)ccc1Cl`, for which the GI50 was 38 µM and the TGI was over 100 µM. `[N-]=[N+]=C1C(=O)C2CC3CC1CC2C3` (stereo unspecified): the TGI was over 100 µM.

Regarding `Cn1cc(-c2ncnc3ccc(-c4cnc(Cl)c(NS(C)(=O)=O)c4)cc23)c2ccccc21`, the GI50 is 0.741 µM and the TGI stood at 29.5 µM.

`COc1cc(OCCCN2CCCC2)ccc1Nc1ncc(Cl)c(Nc2ccccc2P(C)(C)=O)n1`: the GI50 is 1.54 µM and the TGI is 6.84 µM. As for `C1=C2C3=[N+](CCCC3)CC2Cc2sccc21` (stereo unspecified), the TGI was over 100 µM. In turn, `COC(=O)[C@H](Cc1ccccc1)NC(=O)OCC1OC(n2cc(C)c(=O)[nH]c2=O)CC1N=[N+]=[N-]` (stereo partly specified) displayed a TGI of over 100 µM. In the case of `Oc1c(CN2CCCCC2)ccc2cccnc12`, the GI50 was 2.49 µM and the TGI worked out at 13.5 µM. As to `N#Cc1c(N)c(C(=O)c2ccc3c(c2)OCCO3)n2c1CCCC2`, the GI50 was 6.33 µM and the TGI was over 100 µM. Consider `O=CC1=CCCN(CCc2c[nH]c3ccccc23)C1`, for which the TGI was 103 µM. Take `CC(=O)CCc1ccc(Oc2c3ccccc3nc3occc23)cc1`: the GI50 was 18.5 µM and the TGI came out at 39.2 µM.

As to `CC1(C)N=C(N)N=C(N)N1c1cccc(CCCCc2ccc(Cl)c(S(=O)(=O)F)c2)c1`, the GI50 is 6.45 µM and the TGI is 22.5 µM. On to `Cc1cc2[nH]c(=O)c3c4ncccc4cn3c2cc1C`, for which the GI50 is 4.1 µM and the TGI was over 100 µM. With `O=C(CSc1nc2ccc(I)cc2c(=O)n1Cc1ccccc1)NNC(=S)Nc1ccccc1`, the TGI is over 100 µM. Take `OCC1CC2C=CCC(C2)C1` (stereo unspecified): the TGI was over 100 µM. For the compound `CC(=O)OC1CC2C(C)(C)C(=O)C=C[C@]2(C)C2CCC3(C)C(c4ccoc4)C(=O)C4OC43[C@]12C` (stereo partly specified), the TGI is 50.5 µM.

Take `C/C(COc1ccc2oc(-c3ccccc3)cc(=O)c2c1)=N\O`: the GI50 was 21.4 µM and the TGI was found to be 90.9 µM. `COc1ccc2nc(N/N=C/c3ccc(C)s3)cc(C)c2c1` came in with a TGI of 30.4 µM.

Compound `O=S(=O)(O)c1ccc(N=Nc2ccc(N=Nc3c(O)ccc4ccc(S(=O)(=O)O)cc34)cc2)cc1` returned a TGI of over 100 µM. With `Cc1ccccc1SC(/C=C/NNC1=NC(c2ccccc2)C(c2ccccc2)=NN1)c1ccccc1` (stereo unspecified), the TGI came out at 56.5 µM. Same read-out and setting: in the case of `O=C(N/C(=C\c1cccc([N+](=O)[O-])c1)c1nc2c3c(ccc2[nH]1)C(=O)c1ccccc1C3=O)c1ccccc1` it was over 100 µM; in that of `O=C(NC1CCCCC1)NC12CC3CC(CC(F)(C3)C1)C2`, over 100 µM.

`C[C@H](CCC(=O)O)[C@H]1CC[C@H]2[C@@H]3[C@H](O)[C@H](O)[C@@H]4C[C@H](O)CC[C@]4(C)[C@H]3CC[C@]12C`: the TGI was over 100 µM. On to `COP(=O)(/C=C/C(NC(=O)C(Cl)(Cl)Cl)c1ccccc1)OC` (stereo unspecified), for which the TGI is over 100 µM. On to `COC(=O)[C@@H](C)C[C@H](Cc1ccc(F)cc1)NC(=O)c1csc([C@@H](C[C@H](C(C)C)N(C)C(=O)[C@@H](NC(=O)[C@H]2CCCCN2C)C2CC2)OC(C)=O)n1`, for which the GI50 was 1.19 µM and the TGI is over 25 µM. As for `CCCCSC1CCSc2c1ccc1ccccc21` (stereo unspecified), the TGI is over 100 µM.

For the origin of these results see PubChem BioAssay (NCI).
